Measurements: the supplement of paper PMC4604168 (melanoma cell lines)
The list shows a part of the results. Single values are uncertain, as repeats are few or missing.

Columns and labels:
Assay in all cases: cell count relative to DMSO control; melanoma cells; higher = more viable cells
Settings in all cases: library dose: standard library concentration; 72 h
SkMel28 = system: SkMel28
SkMel2 = system: SkMel2
SkMel30 = system: SkMel30
SkMel5 = system: SkMel5
UACC257 = system: UACC257
UACC62 = system: UACC62
WM115 = system: WM115
WM1716 = system: WM1716
WM1745 = system: WM1745
WM3526 = system: WM3526
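Note: cells treated in 1,536-well plates, then fixed and DAPI-stained, with nuclei counted from automated high-throughput microscope images.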

Compound	cell count (SkMel28)	cell count (SkMel2)	cell count (SkMel30)	cell count (SkMel5)	cell count (UACC257)	cell count (UACC62)	cell count (WM115)	cell count (WM1716)	cell count (WM1745)	cell count (WM3526)
CC1(C)CCC(c2ccc(Cl)cc2)=C(CN2CCN(c3ccc(C(=O)NS(=O)(=O)c4ccc(N[C@H](CCN5CCOCC5)CSc5ccccc5)c(S(=O)(=O)C(F)(F)F)c4)cc3)CC2)C1 + C#Cc1cccc(Nc2ncnc3cc(OCCOC)c(OCCOC)cc23)c1 [erlotinib] (first compound 2 µM, partner dose 4 µM)	44.2%	68%	43.9%	46.3%	33.8%	37.5%	34.2%	46.5%	3.42%	63.4%
CC1(C)CCC(c2ccc(Cl)cc2)=C(CN2CCN(c3ccc(C(=O)NS(=O)(=O)c4ccc(N[C@H](CCN5CCOCC5)CSc5ccccc5)c(S(=O)(=O)C(F)(F)F)c4)cc3)CC2)C1 + C[C@]1(O)C[C@@H](c2nc(-c3ccc4ccc(-c5ccccc5)nc4c3)c3c(N)nccn32)C1 [OSI906] (first compound 2 µM, partner dose 2 µM)	82.7%	56%	61.8%	55.5%	49.7%	45.4%	109%	66.9%	2.2%	75.4%
O=C(/C=C/c1cccnc1)NCCCCC1CCN(C(=O)c2ccccc2)CC1 + O=C(O)c1ccc(-c2c[nH]c3ncc(-c4ccccc4)cc23)cc1C1CCCC1 [GSK650394] (first compound 0.05 µM, partner dose 0.8 µM)	62.6%	21%	96.2%	107%	88.5%	85.8%	78.7%	88.6%	109%	92%
Cc1ccc(Nc2nccc(N(C)c3ccc4c(C)n(C)nc4c3)n2)cc1S(N)(=O)=O [Pazopanib] + Cn1c(=O)n(-c2ccc(C(C)(C)C#N)cc2)c2c3cc(-c4cnc5ccccc5c4)ccc3ncc21 [NVP-BEZ235] (first compound 2 µM, partner dose 0.02 µM)	43.3%	57.9%	53.3%	76.6%	106%	64.9%	75.6%	66.2%	82.4%	59.6%
CC1(C)CCC(c2ccc(Cl)cc2)=C(CN2CCN(c3ccc(C(=O)NS(=O)(=O)c4ccc(N[C@H](CCN5CCOCC5)CSc5ccccc5)c(S(=O)(=O)C(F)(F)F)c4)cc3)CC2)C1 + Cn1sc(=O)n(Cc2ccccc2)c1=O [TDZD-8] (first compound 2 µM, partner dose 2 µM)	55.3%	87.5%	70.5%	81.1%	38%	63.8%	73.9%	60.8%	5.48%	81.8%
CC1(C)CCC(c2ccc(Cl)cc2)=C(CN2CCN(c3ccc(C(=O)NS(=O)(=O)c4ccc(N[C@H](CCN5CCOCC5)CSc5ccccc5)c(S(=O)(=O)C(F)(F)F)c4)cc3)CC2)C1 + CNC(=O)c1cc(Oc2ccc(NC(=O)Nc3ccc(Cl)c(C(F)(F)F)c3)cc2)ccn1 [sorafenib] (first compound 2 µM, partner dose 2 µM)	59.7%	67.1%	56.7%	70.8%	32.9%	80.2%	62.1%	73.7%	3.94%	38.4%
CC1(C)CCC(c2ccc(Cl)cc2)=C(CN2CCN(c3ccc(C(=O)NS(=O)(=O)c4ccc(N[C@H](CCN5CCOCC5)CSc5ccccc5)c(S(=O)(=O)C(F)(F)F)c4)cc3)CC2)C1 + Nc1ncn([C@H]2C[C@H](O)[C@@H](CO)O2)c(=O)n1 [decitabine] (first compound 2 µM, partner dose 0.5 µM)	89.5%	75.5%	57.4%	80.6%	46.8%	62.2%	57.6%	48.6%	5.18%	97%
O=C(/C=C/c1cccnc1)NCCCCC1CCN(C(=O)c2ccccc2)CC1 + CN1CCN(c2ccc3nc(-c4c(N)c5c(F)cccc5[nH]c4=O)[nH]c3c2)CC1 [Dovitinib] (first compound 0.05 µM, partner dose 0.5 µM)	52.1%	10.4%	81.7%	81.6%	79.4%	67.3%	64.2%	51.5%	52.2%	71.3%
O=C(/C=C/c1cccnc1)NCCCCC1CCN(C(=O)c2ccccc2)CC1 + COc1cc(Nc2ncc(F)c(Nc3ccc4c(n3)NC(=O)C(C)(C)O4)n2)cc(OC)c1OC [Tamatinib] (first compound 0.05 µM, partner dose 2 µM)	62.4%	31.4%	117%	48.9%	95%	96.2%	71.5%	60.9%	48.4%	74.4%
Cc1ccc(Nc2nccc(N(C)c3ccc4c(C)n(C)nc4c3)n2)cc1S(N)(=O)=O [Pazopanib] + Cn1cncc1[C@@](N)(c1ccc(Cl)cc1)c1ccc2c(c1)c(-c1cccc(Cl)c1)cc(=O)n2C [tipifarnib] (first compound 2 µM, partner dose 0.05 µM)	45%	83%	91%	48.6%	85.7%	61.5%	60.4%	60.8%	121%	63.1%
O=C(/C=C/c1cccnc1)NCCCCC1CCN(C(=O)c2ccccc2)CC1 + Clc1ccc(Nc2nnc(Cc3ccncc3)c3ccccc23)cc1 [vatalanib] (first compound 0.05 µM, partner dose 10 µM)	74%	20.9%	81.1%	89%	75.8%	71.2%	108%	80.9%	68%	76.8%
CC1(C)CCC(c2ccc(Cl)cc2)=C(CN2CCN(c3ccc(C(=O)NS(=O)(=O)c4ccc(N[C@H](CCN5CCOCC5)CSc5ccccc5)c(S(=O)(=O)C(F)(F)F)c4)cc3)CC2)C1 + Nc1ccn([C@@H]2O[C@H](CO)[C@@H](O)C2(F)F)c(=O)n1 [gemcitabine] (first compound 2 µM, partner dose 0.002 µM)	64%	73%	48.5%	85.7%	36.8%	58.4%	86.6%	37.2%	3.5%	94.5%
Cc1ccc(Nc2nccc(N(C)c3ccc4c(C)n(C)nc4c3)n2)cc1S(N)(=O)=O [Pazopanib] + CC(=O)c1c(C)c2cnc(Nc3ccc(N4CCNCC4)cn3)nc2n(C2CCCC2)c1=O [palbociclib] (first compound 2 µM, partner dose 0.2 µM)	35.4%	66%	61.2%	46.1%	82.4%	53.5%	42.8%	45.7%	64%	40%
O=C(/C=C/c1cccnc1)NCCCCC1CCN(C(=O)c2ccccc2)CC1 + CS(=O)(=O)c1ccc(C(=O)Nc2ccc(Cl)c(-c3ccccn3)c2)c(Cl)c1 [vismodegib] (first compound 0.05 µM, partner dose 5 µM)	113%	13%	103%	81.9%	109%	66.9%	82.5%	69.1%	91.7%	85.6%
CC1(C)CCC(c2ccc(Cl)cc2)=C(CN2CCN(c3ccc(C(=O)NS(=O)(=O)c4ccc(N[C@H](CCN5CCOCC5)CSc5ccccc5)c(S(=O)(=O)C(F)(F)F)c4)cc3)CC2)C1 + COc1ccc(C2=N[C@@H](c3ccc(Cl)cc3)[C@@H](c3ccc(Cl)cc3)N2C(=O)N2CCNC(=O)C2)c(OC(C)C)c1 [Nutlin-3] (first compound 2 µM, partner dose 0.5 µM)	50.6%	79.3%	81.6%	57.3%	30.3%	47%	67.5%	48.3%	2.3%	75.3%
CC1(C)CCC(c2ccc(Cl)cc2)=C(CN2CCN(c3ccc(C(=O)NS(=O)(=O)c4ccc(N[C@H](CCN5CCOCC5)CSc5ccccc5)c(S(=O)(=O)C(F)(F)F)c4)cc3)CC2)C1 + Cn1cnc2c(F)c(Nc3ccc(Br)cc3Cl)c(C(=O)NOCCO)cc21 [selumetinib] (first compound 2 µM, partner dose 0.075 µM)	56.6%	38.2%	27.6%	71.8%	47.1%	37.5%	56.5%	63.2%	4.96%	46.3%
O=C(/C=C/c1cccnc1)NCCCCC1CCN(C(=O)c2ccccc2)CC1 + Nc1nc(F)nc2c1ncn2[C@@H]1O[C@H](CO)[C@@H](O)[C@@H]1O [fludarabine] (first compound 0.05 µM, partner dose 1 µM)	2.2%	1.8%	37.4%	39.1%	57.1%	66.7%	86.5%	70%	90.6%	23%
O=C(/C=C/c1cccnc1)NCCCCC1CCN(C(=O)c2ccccc2)CC1 + Cc1cn(-c2cc(NC(=O)c3ccc(C)c(Nc4nccc(-c5cccnc5)n4)c3)cc(C(F)(F)F)c2)cn1 [nilotinib] (first compound 0.05 µM, partner dose 1 µM)	118%	8.11%	94%	77.3%	129%	78.1%	112%	78.9%	95.5%	83.5%
O=C(/C=C/c1cccnc1)NCCCCC1CCN(C(=O)c2ccccc2)CC1 + O=C(O)[C@@H]1[O][Sb](=[O])([O][Sb]2(=[O])[O][C@H]([C@H](O)CO)[C@H](O)[C@H](C(=O)O)[O]2)[O][C@H]([C@H](O)CO)[C@@H]1O [stibogluconate] (first compound 0.05 µM, partner dose 10 µM)	76.9%	10.7%	107%	100%	109%	88.2%	114%	84.2%	138%	94.7%
CC1(C)CCC(c2ccc(Cl)cc2)=C(CN2CCN(c3ccc(C(=O)NS(=O)(=O)c4ccc(N[C@H](CCN5CCOCC5)CSc5ccccc5)c(S(=O)(=O)C(F)(F)F)c4)cc3)CC2)C1 + Cn1c(=O)n(-c2ccc(C(C)(C)C#N)cc2)c2c3cc(-c4cnc5ccccc5c4)ccc3ncc21 [NVP-BEZ235] (first compound 2 µM, partner dose 0.02 µM)	38.5%	44%	46.7%	61.2%	43.7%	55.5%	30.3%	52.8%	4.31%	71.5%
CC1(C)CCC(c2ccc(Cl)cc2)=C(CN2CCN(c3ccc(C(=O)NS(=O)(=O)c4ccc(N[C@H](CCN5CCOCC5)CSc5ccccc5)c(S(=O)(=O)C(F)(F)F)c4)cc3)CC2)C1 + Cn1cncc1[C@@](N)(c1ccc(Cl)cc1)c1ccc2c(c1)c(-c1cccc(Cl)c1)cc(=O)n2C [tipifarnib] (first compound 2 µM, partner dose 0.05 µM)	70.2%	51.5%	52%	62%	40.2%	69.1%	63.2%	34.1%	3.31%	87.6%
